{"source": "paper PMC6212790", "note": "Some of the results follow. At the low end of the ranking the order means little.", "data": [{"target": "T1, GST-Rok-C97-191 (UniProt O34857)", "T1 sequence": "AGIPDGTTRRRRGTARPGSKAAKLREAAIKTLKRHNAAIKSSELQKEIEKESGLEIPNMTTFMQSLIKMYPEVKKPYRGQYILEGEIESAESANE", "assay": "protein binding microarray;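 also: rank score from −0.5 (least bound) to 0.5 (best bound)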", "details": "Rok is a gene silencer of Bacillus subtilis; high values mean tight binding; most listed sequences are background and not binding sites; double strand, one strand shown", "units": {"binding signal": "E-score"}, "values": [{"sequence": "GTCGGAAC", "binding signal": 0.0505}, {"sequence": "CGTCAAAG", "binding signal": -0.233}, {"sequence": "ACGTTTAT", "binding signal": 0.124}, {"sequence": "ATGTATTG", "binding signal": 0.213}, {"sequence": "AACGCGTT", "binding signal": 0.0668}, {"sequence": "AACCGTGG", "binding signal": -0.0431}, {"sequence": "AGCTATGA", "binding signal": 0.125}, {"sequence": "ATGCGGAA", "binding signal": -0.0341}, {"sequence": "ACAGTATA", "binding signal": 0.299}, {"sequence": "ACCTGAAG", "binding signal": -0.0424}, {"sequence": "ATCTACCC", "binding signal": 0.22}, {"sequence": "GCACGAGA", "binding signal": -0.134}, {"sequence": "CTCTGTTA", "binding signal": -0.0862}, {"sequence": "AAGGGAAA", "binding signal": -0.00394}, {"sequence": "AGACCTGA", "binding signal": -0.00447}, {"sequence": "CGGGTCCA", "binding signal": -0.234}, {"sequence": "GGACAGGA", "binding signal": -0.175}, {"sequence": "GATTGTCA", "binding signal": 0.0702}, {"sequence": "TTAATTAA", "binding signal": 0.346}, {"sequence": "GGTGTCCA", "binding signal": -0.331}, {"sequence": "CCTAAAGC", "binding signal": -0.145}, {"sequence": "TCTGAGAA", "binding signal": -0.0868}, {"sequence": "CGTGTACC", "binding signal": -0.206}, {"sequence": "ACGACGAA", "binding signal": -0.0769}, {"sequence": "TAACACTA", "binding signal": 0.269}, {"sequence": "GTCATACA", "binding signal": 0.0239}, {"sequence": "CTTACGTA", "binding signal": 0.0916}, {"sequence": "ATCAATCC", "binding signal": -0.0371}, {"sequence": "CAGAGTCG", "binding signal": -0.19}, {"sequence": "AATTGTCT", "binding signal": 0.0485}, {"sequence": "ACGCGATC", "binding signal": -0.103}, {"sequence": "CCTCTACC", "binding signal": -0.0233}, {"sequence": "TATACGAA", "binding signal": 0.197}, {"sequence": "GTTCAGAA", "binding signal": -0.0778}, {"sequence": "GAGCGGCC", "binding signal": -0.187}, {"sequence": "AATCGGAA", "binding signal": -0.0181}, {"sequence": "GTGACGGA", "binding signal": -0.0715}, {"sequence": "AGCCACGG", "binding signal": -0.267}, {"sequence": "CGGATAAA", "binding signal": 0.173}, {"sequence": "TGTCGTAA", "binding signal": 0.182}, {"sequence": "GCTAACAA", "binding signal": 0.101}, {"sequence": "ATGTCAGC", "binding signal": -0.0856}, {"sequence": "CTTGACAA", "binding signal": -0.0112}, {"sequence": "GACATGGC", "binding signal": -0.0446}, {"sequence": "ATTTCTAG", "binding signal": 0.366}, {"sequence": "CTATATTA", "binding signal": 0.355}, {"sequence": "CCTTTGAA", "binding signal": -0.193}, {"sequence": "TCTCTTCA", "binding signal": -0.0311}, {"sequence": "ATGCGTAC", "binding signal": -0.0945}, {"sequence": "GGCGCAAA", "binding signal": 0.151}, {"sequence": "AGCGGAAT", "binding signal": -0.0353}, {"sequence": "CAGTAAAC", "binding signal": 0.103}, {"sequence": "AACTTGGA", "binding signal": 0.0367}, {"sequence": "CGGTTCAG", "binding signal": -0.174}, {"sequence": "GACCACGC", "binding signal": -0.0575}, {"sequence": "AAGTGAGA", "binding signal": 0.0509}, {"sequence": "AGGTTCTC", "binding signal": -0.0318}, {"sequence": "TAGCGGAA", "binding signal": 0.156}, {"sequence": "AAGAAAAA", "binding signal": 0.141}, {"sequence": "TCAGCAAA", "binding signal": -0.0845}, {"sequence": "ACAGAGAT", "binding signal": 0.0146}, {"sequence": "AATGGGGA", "binding signal": -0.0932}, {"sequence": "GGACGATA", "binding signal": 0.0108}, {"sequence": "CATCTAGC", "binding signal": 0.0525}, {"sequence": "ACCTAAAG", "binding signal": 0.00616}, {"sequence": "CAAAACGA", "binding signal": -0.0675}, {"sequence": "ACAACTGG", "binding signal": -0.136}, {"sequence": "AACAGACC", "binding signal": -0.0573}, {"sequence": "AGACCATC", "binding signal": -0.00563}, {"sequence": "ATTAGTAA", "binding signal": 0.303}, {"sequence": "CACTATTC", "binding signal": 0.0856}, {"sequence": "ACATTGAA", "binding signal": -0.0181}, {"sequence": "GTAGCTGA", "binding signal": 0.279}, {"sequence": "AGACTTCC", "binding signal": -0.175}, {"sequence": "AAAGATTA", "binding signal": 0.212}, {"sequence": "AACATTCC", "binding signal": 0.0616}, {"sequence": "CGAATCGC", "binding signal": -0.274}, {"sequence": "CTTGTAAA", "binding signal": 0.216}, {"sequence": "CACCGTAC", "binding signal": -0.0847}, {"sequence": "GAAAAGAC", "binding signal": 0.0797}, {"sequence": "GCTAAAAC", "binding signal": 0.0361}, {"sequence": "TATCCTGA", "binding signal": 0.0508}, {"sequence": "GCCACGTA", "binding signal": -0.0655}, {"sequence": "GTCTCCAC", "binding signal": -0.228}, {"sequence": "GATGTGTA", "binding signal": 0.153}, {"sequence": "CCCTCACG", "binding signal": -0.00587}, {"sequence": "AGACATGC", "binding signal": -0.017}, {"sequence": "AGAAGTCT", "binding signal": 0.0901}, {"sequence": "CAGATTCC", "binding signal": -0.0974}, {"sequence": "CAGAACCC", "binding signal": -0.295}, {"sequence": "TCCGATCA", "binding signal": -0.143}, {"sequence": "ACACCACT", "binding signal": -0.0509}, {"sequence": "AAATTTCC", "binding signal": 0.0447}, {"sequence": "CCAACCGA", "binding signal": -0.148}, {"sequence": "CTAGTTCA", "binding signal": 0.0257}, {"sequence": "TAGAAGAA", "binding signal": 0.287}, {"sequence": "CGGTAGTA", "binding signal": 0.391}, {"sequence": "AGGCTTGG", "binding signal": -0.112}, {"sequence": "CAAAAGTG", "binding signal": -0.157}, {"sequence": "ACTCGCCC", "binding signal": -0.134}, {"sequence": "CATCCCAG", "binding signal": -0.187}, {"sequence": "AATAAAGT", "binding signal": 0.0104}, {"sequence": "CGGGACTA", "binding signal": 0.0767}, {"sequence": "GTGTTCTA", "binding signal": 0.271}, {"sequence": "ACCCACAC", "binding signal": -0.0658}, {"sequence": "AACTAATG", "binding signal": 0.238}, {"sequence": "GCGATGTA", "binding signal": 0.0921}, {"sequence": "CTTCCGCC", "binding signal": -0.266}, {"sequence": "AGGGGACA", "binding signal": -0.285}, {"sequence": "ACGACTGC", "binding signal": -0.0373}, {"sequence": "ATAGTGAG", "binding signal": 0.267}, {"sequence": "ATACACGG", "binding signal": 0.0221}, {"sequence": "CGCGCTTC", "binding signal": -0.0967}, {"sequence": "AGGGCGAC", "binding signal": -0.206}, {"sequence": "ACTCTCCA", "binding signal": -0.0154}, {"sequence": "GGGACAAA", "binding signal": -0.132}, {"sequence": "CTCTCACA", "binding signal": -0.2}, {"sequence": "CGGTGATC", "binding signal": 0.0294}, {"sequence": "AGACGGAT", "binding signal": -0.131}, {"sequence": "GCTCCAGA", "binding signal": -0.211}, {"sequence": "GAGTCCTA", "binding signal": -0.119}, {"sequence": "ACTTCTCG", "binding signal": -0.0289}, {"sequence": "CTCAAGGC", "binding signal": -0.207}, {"sequence": "TAATTACA", "binding signal": 0.396}, {"sequence": "GTACGGTA", "binding signal": 0.226}, {"sequence": "GATTATAC", "binding signal": 0.238}, {"sequence": "ATTCTGAA", "binding signal": 0.183}, {"sequence": "GCCACAAA", "binding signal": -0.122}, {"sequence": "GGTTCTAC", "binding signal": 0.031}, {"sequence": "GATCAACC", "binding signal": -0.104}, {"sequence": "AACGACAG", "binding signal": 0.0211}, {"sequence": "GGATGCAC", "binding signal": -0.18}, {"sequence": "ACTTGCCA", "binding signal": 0.097}, {"sequence": "GATTGTAA", "binding signal": 0.0411}, {"sequence": "ATGGCGCG", "binding signal": -0.0665}, {"sequence": "GCCCGGCC", "binding signal": -0.332}, {"sequence": "ATCCTTAC", "binding signal": 0.0524}, {"sequence": "ACATATCC", "binding signal": 0.228}, {"sequence": "ACCACACA", "binding signal": 0.118}, {"sequence": "GGACCCCA", "binding signal": -0.285}, {"sequence": "CATGGTCG", "binding signal": -0.182}, {"sequence": "ACGCCCGA", "binding signal": -0.0297}, {"sequence": "GGAGAGCA", "binding signal": -0.205}, {"sequence": "CTCCTGAA", "binding signal": -0.115}, {"sequence": "AATTTAAA", "binding signal": 0.115}, {"sequence": "ACCTAGTC", "binding signal": 0.148}, {"sequence": "ACGTCCAT", "binding signal": -0.266}, {"sequence": "CACATTAC", "binding signal": 0.0402}, {"sequence": "CTGAAGTC", "binding signal": 0.113}, {"sequence": "ACAGAAGA", "binding signal": 0.105}, {"sequence": "GATCCCCC", "binding signal": -0.301}, {"sequence": "CATTTAAG", "binding signal": 0.00273}, {"sequence": "GCTACATA", "binding signal": 0.315}, {"sequence": "AACGTCTA", "binding signal": -0.0104}, {"sequence": "CCAATAAA", "binding signal": 0.109}, {"sequence": "GTGTTACA", "binding signal": 0.168}, {"sequence": "GCATCCGA", "binding signal": -0.207}, {"sequence": "CACTGAGA", "binding signal": 0.0515}, {"sequence": "CCCTCCAG", "binding signal": -0.266}, {"sequence": "CGGGTGGA", "binding signal": -0.082}, {"sequence": "ACAAAGAA", "binding signal": 0.0397}, {"sequence": "AAATCAGT", "binding signal": 0.0671}, {"sequence": "CAAATTCA", "binding signal": 0.102}, {"sequence": "GCAACGCC", "binding signal": -0.226}, {"sequence": "GGAAAGCA", "binding signal": -0.22}, {"sequence": "CCCATTGC", "binding signal": -0.29}, {"sequence": "CGCTGGTA", "binding signal": 0.0789}, {"sequence": "TCGAGCCA", "binding signal": -0.141}, {"sequence": "CGAGTAAC", "binding signal": 0.227}, {"sequence": "AACACGGG", "binding signal": 0.088}, {"sequence": "CAAGGGGG", "binding signal": -0.304}, {"sequence": "TCGGTCAA", "binding signal": 0.044}]}]}
